Reference: PubChem BioAssay AID720708 (National Center for Advancing Translational Sciences (NCATS), 2013)
About 660 (0.18%) of roughly 360,000 compounds were called active. The inconclusive results got no clear call from the source; some entries with a clear call stand among them for comparison. Calls follow the shape of the dose curve; as a rule, active = well fitted inhibition curve with a large enough effect; inconclusive = small, poorly fitted or top-dose-only effect; inactive = no such curve, though single readings can be large or run the other way. No potency is given beside an inconclusive call; the fits are too rough.

molecular target: Rap guanine nucleotide exchange factor 4 (Homo sapiens) (UniProt Q8WZA2); assay: qHTS for Antagonist of cAMP-regulated guanine nucleotide exchange factor 2 (EPAC2): primary screen; details: EPAC2 GEF exchange of Rap1B-BODIPY-GDP, fluorescence; activity, negative = inhibition: at 114 µM (top of the series) unless noted; also: nearly all actives have a fitted effect of over 45% in size
UniProt Q8WZA2, sequence (Q8WZA2 whole entry, looked up): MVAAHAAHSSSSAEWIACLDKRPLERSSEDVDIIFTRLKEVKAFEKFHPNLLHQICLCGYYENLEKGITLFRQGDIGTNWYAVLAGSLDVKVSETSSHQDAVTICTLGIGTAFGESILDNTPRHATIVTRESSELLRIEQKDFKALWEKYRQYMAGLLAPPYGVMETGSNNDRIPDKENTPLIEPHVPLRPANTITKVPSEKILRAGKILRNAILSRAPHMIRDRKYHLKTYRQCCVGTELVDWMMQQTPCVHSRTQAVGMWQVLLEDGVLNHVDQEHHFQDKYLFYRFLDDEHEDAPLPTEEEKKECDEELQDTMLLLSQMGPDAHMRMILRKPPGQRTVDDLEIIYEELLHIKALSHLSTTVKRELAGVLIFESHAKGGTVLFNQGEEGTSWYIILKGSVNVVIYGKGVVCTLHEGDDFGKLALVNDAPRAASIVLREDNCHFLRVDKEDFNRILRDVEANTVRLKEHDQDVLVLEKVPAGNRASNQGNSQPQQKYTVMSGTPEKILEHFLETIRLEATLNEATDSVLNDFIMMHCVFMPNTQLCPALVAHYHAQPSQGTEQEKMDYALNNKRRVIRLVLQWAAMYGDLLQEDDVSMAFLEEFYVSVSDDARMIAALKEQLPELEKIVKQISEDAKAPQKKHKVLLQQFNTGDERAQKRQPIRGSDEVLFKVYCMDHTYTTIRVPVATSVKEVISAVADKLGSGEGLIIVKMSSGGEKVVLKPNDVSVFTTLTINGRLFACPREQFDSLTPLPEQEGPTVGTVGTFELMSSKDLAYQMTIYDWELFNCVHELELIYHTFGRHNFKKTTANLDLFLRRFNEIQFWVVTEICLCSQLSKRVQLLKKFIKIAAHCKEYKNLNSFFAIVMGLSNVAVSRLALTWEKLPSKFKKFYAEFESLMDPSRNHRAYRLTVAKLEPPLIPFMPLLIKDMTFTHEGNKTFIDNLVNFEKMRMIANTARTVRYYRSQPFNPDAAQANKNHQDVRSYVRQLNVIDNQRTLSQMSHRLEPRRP
% is scaled to controls: 0 for no effect and ±100 for the full control effect; potency is read from the fitted curve at half-maximal effect; tags tell the direction and shape of the fitted curve.

Structure (SMILES) | Potency | activity, negative = inhibition
COc1ccc(C(O)(C(C)C)C(CN2CCOCC2)c2ccccc2)cc1 (stereo not drawn) | inconclusive [inhibitor, partial curve] | 
O=C(Nc1ccc(CN2CCOCC2)cc1)c1ccc(-c2cc(Cl)ccc2Cl)o1 | inactive | 
CN(CC(=O)Nc1ccccc1Oc1ccccc1)Cc1ccccc1F | inconclusive [inhibitor, partial curve] | 
CCCNC(=S)Nc1ccc(F)cc1F | inactive | 
C(=C\c1ccccc1)/C=N/Nc1nc2ccccc2s1 | inactive | 
CC(=O)Nc1ccc(SC[C@H](Cc2ccccc2)N2CC[C@@H](C(C)(C)C)CCC2=O)cc1 | inconclusive [inhibitor, full curve] | 
O=[N+]([O-])c1ccc(Cl)cc1N1CCCCC1 | inconclusive [inhibitor, partial curve] | 
Cc1ccc2nc(-c3ccc(F)cc3)c(CC3CCCCC3)n2c1 | inconclusive [inhibitor, partial curve] | 
CSc1nc(-c2ccc(Cl)cc2)c(C#N)c(=O)[nH]1 | inconclusive [inhibitor, partial curve] | 
COCCNC(=S)N/N=C/c1ccc(OCc2ccc(C(=O)OC)cc2)c(OC)c1 | inconclusive [inhibitor, full curve, poor fit] | 
COc1cc(/C=C(\C#N)c2nc3ccc(C)cc3[nH]2)cc([N+](=O)[O-])c1O | inconclusive [inhibitor, partial curve] | 
COc1cc2c(c3oc(-c4ccccc4)cc(=O)c13)C=CC(C)(C)O2 | inconclusive [inhibitor, single point] | 
N#Cc1c(=O)c2nc(NCCCO)ncc2n2c(=O)c3ccccc3[nH]c12 | inconclusive [inhibitor, partial curve] | 
O=C(O)C(Cc1ccccc1)N1C(=O)/C(=C/c2ccccc2)SC1=S (stereo not drawn) | inconclusive [inhibitor, partial curve] | 
C[C@@H](NC(=O)C1(c2ccccc2)CCN(C(=O)OC(C)(C)C)CC1)C(=O)N[C@@H](C(=O)O)c1ccccc1 | inconclusive [inhibitor, full curve] | 
O=C(COc1ccc(Br)cc1)NCC1COc2ccccc2O1 (stereo not drawn) | inconclusive [inhibitor, partial curve] | 
COc1ccccc1C(=O)COC(=O)c1cc(=O)[nH]c2ccccc12 | inactive | 
Nc1nc(N)c2cc(Sc3cccc(C(F)(F)F)c3)ccc2n1 | inconclusive [inhibitor, partial curve] | 
COc1ccc(C(=O)N(Cc2ccccc2)c2cccc(C)c2)c(OC)c1OC | inconclusive [inhibitor, partial curve] | 
CCc1ccc([C@@H]2CC=C(C(=O)O)[C@H](c3ccccc3F)N2S(=O)(=O)c2ccc(C)cc2)cc1 | inconclusive [inhibitor, single point] | 
CN(CC(=O)NCc1ccccc1F)S(=O)(=O)c1ccc(Cl)cc1 | inactive | 
Cc1ccc(N(CC(=O)NCc2ccc(F)cc2)C(=O)c2csnn2)cc1C | inactive | 
Nc1ccc2c(c1)C(=O)C(=O)c1ccccc1-2 | active: 8.91 µM | 

Structure (SMILES) | Potency | activity, negative = inhibition
CCc1ccccc1Nc1nc(-c2cccnc2)cs1 | inconclusive [inhibitor, partial curve] | 
COc1c(C)cccc1C(=O)Nc1ccc(N2CCN(S(C)(=O)=O)CC2)cc1 | inactive | 
COc1ccc2oc(C(=O)N(C)CCOc3ccc(Cl)cc3)c(C)c2c1 | inconclusive [inhibitor, partial curve] | 
COC(=O)c1cc2ccsc2n1Cc1cccc(F)c1 | inconclusive [inhibitor, full curve] | 
COC(=O)C[C@H]1CC[C@H](NC(=O)Nc2ccccc2F)[C@@H](CO)O1 | inactive | 
O=C(O)c1cnn(-c2nc(-c3cccc([N+](=O)[O-])c3)cs2)c1C(F)(F)F | inconclusive [inhibitor, partial curve] | 
O=C(Nc1ccc(F)cc1F)c1ccc2ncsc2c1 | inactive | 
COc1ccccc1Nc1ccc2c(O)cc(S(=O)(=O)O)cc2c1 | inconclusive [inhibitor, partial curve] | 
COc1ccc(-n2c(=S)[nH]c3[nH]ncc3c2=O)cc1 | inactive | 
O=C(O)c1cccc(NC(=S)N/N=C/c2ccccc2OCc2ccc(Br)cc2)c1 | inconclusive [inhibitor, partial curve] | 
COc1cc(C(=O)NC2CCN(C)CC2)ccc1Nc1ncc2c(n1)N(C1CCC(O)CC1)CCC(=O)N2C (stereo not drawn) | inactive | 
CCc1cc[n+](-c2nc3ccccc3nc2[N-]S(=O)(=O)c2ccc(Br)s2)cc1 | inconclusive [inhibitor, full curve] | 
COc1ccc(CC(C)Nc2cccc(SC)c2)cc1 (stereo not drawn) | inconclusive [inhibitor, partial curve] | 
COc1cccc(CNC(=O)COc2cc3c(c4oc(=O)cc(C)c24)CCC(C)(C)O3)c1 | inconclusive [inhibitor, single point] | 
COc1ccccc1-n1cnnc1SCC(=O)Nc1cccc(S(N)(=O)=O)c1 | inactive | 
CCc1ccc(C(O)(C(C)C)C(CN2CCOCC2)c2ccccc2)cc1 (stereo not drawn) | inconclusive [inhibitor, partial curve] | 
COc1ccc(NC(=O)c2csc3c2CCCCC3)c(OC)c1 | inconclusive [inhibitor, partial curve] | 
Cc1ccccc1-c1csc(C(O)c2ccccc2)n1 (stereo not drawn) | inconclusive [inhibitor, full curve, poor fit] | 
O=S(=O)(Nc1ccc(O)c(Sc2nc3ccccc3s2)c1)c1ccc(Cl)cc1 | inconclusive [inhibitor, partial curve] | 
COc1cccc(NC(=O)CN(C)C(=O)c2cccnc2Nc2cccc(C(F)(F)F)c2)c1 | inconclusive [inhibitor, full curve, poor fit] | 
O=C(CN1CCCCC1)Nc1ccc(NC(=O)c2ccccc2Cl)cc1Cl |  | inconclusive: -18.2% [inhibitor]
NS(=O)(=O)c1cc(C(=O)NC2CCSc3ccccc32)ccc1Cl (stereo not drawn) | active: 35.5 µM | 
CC(C)CN(C)C(=O)CCc1nnc(Cc2ccc(-c3ccccc3)cc2)o1 | inconclusive [inhibitor, partial curve] | 

Structure (SMILES) | Potency | activity, negative = inhibition
Cn1c(CC(=O)NN)c(Sc2ccccc2)c2ccccc21 | inconclusive [inhibitor, partial curve] | 
c1csc(-c2nc(N3CCOCC3)c3ccccc3n2)c1 | inconclusive [inhibitor, single point] | 
COc1cccc(C(c2nnnn2-c2c(C)cccc2C)N2CCN(C/C=C/c3ccccc3)CC2)c1OC (stereo not drawn) | inconclusive [inhibitor, single point] | 
CCN(CC)c1ccc(/C=C(\C#N)C(N)=S)cc1 | inconclusive [inhibitor, partial curve] | 
CN(C)CCC(=O)N1C/C(=C/c2ccccc2)C(=O)/C(=C\c2ccccc2)C1 | inactive | 
COCCN(CCOC)c1nc(-c2ccccc2)nc2ccccc12 | inconclusive [inhibitor, partial curve] | 
CCOc1ncccc1C(=O)Nc1ccc(C)c(S(=O)(=O)N2CCCCCC2)c1 | inconclusive [inhibitor, partial curve] | 
Cc1ccc(NC(=O)CCN2CCN(C/C=C/c3ccccc3)CC2)cc1C | inactive | 
CN1C(=O)/C(=C\C=C2/CCCN2C)N(C)C1=S | inactive | 
CC(=O)Nc1ccc(S(=O)(=O)N(C)Cc2ccccc2)cc1 | inactive | 
N#Cc1c(-c2ccccc2)nc(SCc2cccc(C(F)(F)F)c2)[nH]c1=O | active: 39.8 µM | 
Cn1cc([C@@H]2C[C@H]3CN(Cc4cccc(Cl)c4)C(=O)[C@]34CCCN24)c(-c2ccccc2)n1 | inconclusive [inhibitor, partial curve] | 
COC(=O)c1ccc(-c2c(-c3ccccc3)ncc3cc(F)ccc23)cc1 | inconclusive [inhibitor, full curve, poor fit] | 
CN1CCN(C(=O)c2cc(COc3c(F)cccc3F)on2)CC1c1ccccc1 (stereo not drawn) | inconclusive [inhibitor, partial curve] | 
Cc1ccc(S(=O)(=O)/N=C2\C=C(NS(=O)(=O)c3ccccc3)C(=O)c3ccccc32)c(C)c1 | inconclusive [inhibitor, partial curve] | 
CC(=O)Nc1cc(-c2ccccc2N(C)C)cn2c(-c3cccc(C(F)(F)F)c3)cnc12 | inconclusive [inhibitor, partial curve] | 
C=CCn1c(COc2ccc(OC)cc2)nc2ccccc21 | inconclusive [inhibitor, partial curve] | 
CC1CCN(Cc2c(C(=O)N/N=C/c3cc(Br)ccc3O)nnn2-c2nonc2N)CC1 | inactive | 
Clc1cccc(Cc2c(-c3ccco3)nc3ccc(Br)cn23)c1 | inconclusive [inhibitor, single point] | 
N#CC(=C(O)COC(=O)CCCNC(=O)c1ccc(Cl)cc1)c1nc2ccccc2[nH]1 | inconclusive [inhibitor, single point] | 
CCCCC1(CC(=O)OC)C(=O)N(c2ccccc2)N(c2ccccc2)C1=O | inconclusive [inhibitor, partial curve] | 
Cc1ccc(C)c(N2CCN(S(=O)(=O)c3ccc4c(c3)NC(=O)CC(=O)N4)CC2)c1 | inconclusive [inhibitor, partial curve] | 
